The list shows a part of the results.
Molecular target: no compound (DMSO)
Assay: log2 fold change of degron read counts, EGFP-low vs EGFP+ sorted cells; higher = lower degron-EGFP level without compound (poor expression or instability)
Details: compound: DMSO control; 18 h
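Further: jurkat cells carrying a lentiviral library of mutant zinc finger degrons fused to EGFP plus mCherry, mCherry+ cells FACS sorted, degron abundance counted by next-generation sequencing.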

Row | Sequence | log2 fold change of degron read counts
1 | FMCPICGHHFTQKGNLLRHIKL | -0.215
2 | LSCPICGFHCTQKGNLLRHIKL | 0.814
3 | FRCPQCGAQFTQKGNLLRHIKL | -0.33
4 | FECNQCGADFTQKGNLLRHIKL | -1.87
5 | FNCPICGRHFTQKGNLLRHIKL | -0.435
6 | FGCNQCGHLFTQKGNLLRHIKL | 1.27
7 | FYCEICGRAFTQKGNLLRHIKL | -1.31
8 | FMCDICGAPFTQKGNLLRHIKL | -1.06
9 | FKCNQCGAIFTQKGNLLRHIKL | -0.467
10 | FICNQCGRMFTQKGNLLRHIKL | -0.534
11 | FWCPVCGAKFTQKGNLLRHIKL | -0.321
12 | FYCPICGRVFTQKGNLLRHIKL | -1.63
13 | FQCNQCGAEFTQKGNLLRHIKL | -2.42
14 | FHCEQCGAGFTQKGNLLRHIKL | -2.43
15 | FGCEICGAQFTQKGNLLRHIKL | -1.81
16 | FICPQCGAEFTQKGNLLRHIKL | -2.08
17 | FCCEICGHIFTQKGNLLRHIKL | -0.468
18 | FGCNQCGHAFTQKGNLLRHIKL | 0.898
19 | FRCNICGAGFTQKGNLLRHIKL | -0.541
20 | FICDQCGAYFTQKGNLLRHIKL | -0.754
21 | FSCEICGRCFTQKGNLLRHIKL | -1.74
22 | FTCSVCGHEFTQKGNLLRHIKL | -1.08
23 | LNCNQCGFNCTQKGNLLRHIKL | 0.315
24 | FVCNQCGHRFTQKGNLLRHIKL | -0.096
25 | FYCEQCGASFTQKGNLLRHIKL | -2.13

Row | Sequence | log2 fold change of degron read counts
26 | FWCEICGAHFTQKGNLLRHIKL | -0.423
27 | FGCNICGANFTQKGNLLRHIKL | -0.211
28 | LICEICGFQCTQKGNLLRHIKL | -0.84
29 | FHCSVCGHHFTQKGNLLRHIKL | 0.0243
30 | FKCSVCGHIFTQKGNLLRHIKL | -0.452
31 | FACEICGRRFTQKGNLLRHIKL | -2.04
32 | FGCEICGHNFTQKGNLLRHIKL | -0.551
33 | LFCEICGFFCTQKGNLLRHIKL | 1.98
34 | FACPICGHNFTQKGNLLRHIKL | -0.501
35 | FQCPICGHDFTQKGNLLRHIKL | -0.49
36 | FHCPICGHKFTQKGNLLRHIKL | -0.455
37 | FYCEVCGACFTQKGNLLRHIKL | -0.63
38 | FWCNQCGHPFTQKGNLLRHIKL | 1.94
39 | FFCEICGAYFTQKGNLLRHIKL | -0.15
40 | LKCEICGFMCTQKGNLLRHIKL | -0.0783
41 | LTCEICGFGCTQKGNLLRHIKL | -0.113
42 | FTCEQCGAAFTQKGNLLRHIKL | -1.64
43 | FMCEICGAEFTQKGNLLRHIKL | -1.79
44 | LHCPICGFQCTQKGNLLRHIKL | 0.366
45 | FCCDQCGADFTQKGNLLRHIKL | -2.2
46 | FKCEICGAEFTQKGNLLRHIKL | -3.25
47 | FHCEICGAQFTQKGNLLRHIKL | -1.55
48 | FRCEVCGATFTQKGNLLRHIKL | -1.53
49 | FDCPICGHRFTQKGNLLRHIKL | -0.156
50 | FNCPQCGAYFTQKGNLLRHIKL | 0.104
